In the supplement of paper PMC7826260:
Some of the results follow. Cleavage of a single-stranded DNA pool by Rep nickase domains was read by sequencing for 1 h at 37 °C with 3 µM enzyme; only the middle of the 90-letter strands is printed. Uncut reads are compared with the no-enzyme pool on a log2 scale; more negative means more cut, near 0 not cut, and no call is made. Reads are scaled to the total; uncut strands gain when others are lost, and binding without cutting may add a little.

How the values were obtained:
Experiment in all cases: uncleaved DNA left, log2 of reads against the no-enzyme library (log2 ratio); higher = less cleavage (more negative = more Rep cleavage of the k-mer); sequences stand for … in CTCGTCCG…ACCGGAGA
[1] = tested on: T1, Rep nickase domain of Muscovy duck circovirus
T1 sequence (protein, residues 1-111, tag omitted): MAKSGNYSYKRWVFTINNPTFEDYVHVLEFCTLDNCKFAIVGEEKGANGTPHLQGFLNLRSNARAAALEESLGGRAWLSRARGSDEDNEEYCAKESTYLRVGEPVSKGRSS
Description: (§1)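 A pool of 90-nt single-stranded DNAs with seven random bases just before the constant AC of the nick site (name = the seven bases) was cut by 3 µM recombinant His6-SUMO-tagged Rep nickase domain (300 nM DNA, 50 mM HEPES pH 8.0, 50 mM NaCl, 1 mM MnCl2, 1 h, 37 °C, three replicates). Uncut DNA was amplified and sequenced.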

[2] = tested on: T2, Rep nickase domain of banana bunchy top virus
T2 sequence (protein, residues 1-94, tag omitted): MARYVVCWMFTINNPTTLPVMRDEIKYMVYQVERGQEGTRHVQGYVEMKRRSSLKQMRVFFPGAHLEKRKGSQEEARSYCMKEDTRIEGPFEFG
Description: as §1

[3] = tested on: T3, Rep nickase domain of cabbage leaf curl virus
T3 sequence (protein, residues 1-116, tag omitted): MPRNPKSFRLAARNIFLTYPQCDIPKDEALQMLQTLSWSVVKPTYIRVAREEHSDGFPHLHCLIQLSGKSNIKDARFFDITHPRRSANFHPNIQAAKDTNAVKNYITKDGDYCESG
Description: as §1

[4] = tested on: T4, Rep nickase domain of chickpea chlorotic dwarf virus
T4 sequence (protein, residues 1-124, tag omitted): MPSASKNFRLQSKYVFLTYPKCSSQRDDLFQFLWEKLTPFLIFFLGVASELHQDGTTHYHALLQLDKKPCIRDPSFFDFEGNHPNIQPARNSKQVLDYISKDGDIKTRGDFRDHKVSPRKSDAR
Description: as §1

[5] = tested on: T5, Rep nickase domain of faba bean necrotic yellows virus
T5 sequence (protein, residues 1-98, tag omitted): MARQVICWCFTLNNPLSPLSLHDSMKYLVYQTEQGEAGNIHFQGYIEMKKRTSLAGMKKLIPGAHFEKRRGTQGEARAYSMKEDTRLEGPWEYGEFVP
Description: as §1

[6] = tested on: T6, Rep nickase domain of maize striate mosaic virus
T6 sequence (protein, residues 1-117, tag omitted): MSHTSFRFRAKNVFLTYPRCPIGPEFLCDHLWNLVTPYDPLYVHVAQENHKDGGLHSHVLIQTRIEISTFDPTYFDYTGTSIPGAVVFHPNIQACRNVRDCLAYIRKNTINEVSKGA
Description: as §1

[7] = tested on: T7, Rep nickase domain of porcine circovirus 2
T7 sequence (protein, residues 2-116, tag omitted): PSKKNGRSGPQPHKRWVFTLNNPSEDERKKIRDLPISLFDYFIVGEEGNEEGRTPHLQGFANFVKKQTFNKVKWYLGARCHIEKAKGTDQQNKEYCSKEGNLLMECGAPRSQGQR
Description: as §1

[8] = tested on: T8, Rep nickase domain of tomato yellow leaf curl virus
T8 sequence (protein, residues 1-136, tag omitted): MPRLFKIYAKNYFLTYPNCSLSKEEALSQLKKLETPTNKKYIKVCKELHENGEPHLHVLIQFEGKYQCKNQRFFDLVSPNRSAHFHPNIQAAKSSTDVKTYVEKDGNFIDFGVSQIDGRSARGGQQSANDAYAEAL
Description: as §1

[9] = tested on: T9, Rep nickase domain of wheat dwarf virus
T9 sequence (protein, residues 1-137, tag omitted): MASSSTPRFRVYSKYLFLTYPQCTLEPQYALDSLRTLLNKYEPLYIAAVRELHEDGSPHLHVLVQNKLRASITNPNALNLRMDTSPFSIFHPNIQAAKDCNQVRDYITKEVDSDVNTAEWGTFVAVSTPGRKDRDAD
Description: as §1

Which results are given for GTGGACC?
uncleaved DNA left (log2) [1]: 0.0034; uncleaved DNA left (log2) [2]: 0.0475; uncleaved DNA left (log2) [3]: 0.769; uncleaved DNA left (log2) [4]: 1.75; uncleaved DNA left (log2) [5]: 0.000878; uncleaved DNA left (log2) [6]: 2.19; uncleaved DNA left (log2) [7]: 0.259; uncleaved DNA left (log2) [8]: 0.052; uncleaved DNA left (log2) [9]: 0.136

CAGGTGA was tested. Which “uncleaved DNA left (log2)” value [1] did it give?
Its value is 0.153.

And the “uncleaved DNA left (log2)” value [2]?
The value was 0.0688.

And the “uncleaved DNA left (log2)” value [3]?
The value was 0.118.

What about the “uncleaved DNA left (log2)” value [4] of the same sequence?
Its value is 0.115.

And the “uncleaved DNA left (log2)” value [5]?
The value was 0.0537.

What about the “uncleaved DNA left (log2)” value [6] of the same sequence?
Its value is -0.0356.

And the “uncleaved DNA left (log2)” value [7]?
Its value is 0.0141.

And the “uncleaved DNA left (log2)” value [8]?
The value was -0.0237.

What about the “uncleaved DNA left (log2)” value [9] of the same sequence?
Its value is 0.0638.

What does the source list for GATCGGC?
uncleaved DNA left (log2) [1]: -0.0578; uncleaved DNA left (log2) [2]: -0.0666; uncleaved DNA left (log2) [3]: 0.0977; uncleaved DNA left (log2) [4]: 0.367; uncleaved DNA left (log2) [5]: -0.0296; uncleaved DNA left (log2) [6]: -0.0892; uncleaved DNA left (log2) [7]: 0.0081; uncleaved DNA left (log2) [8]: -0.113; uncleaved DNA left (log2) [9]: -0.0257

What does the source list for TAAATTA?
uncleaved DNA left (log2) [1]: -0.0565; uncleaved DNA left (log2) [2]: 0.0182; uncleaved DNA left (log2) [3]: -2.38; uncleaved DNA left (log2) [4]: -2.61; uncleaved DNA left (log2) [5]: -0.0418; uncleaved DNA left (log2) [6]: -0.909; uncleaved DNA left (log2) [7]: -0.193; uncleaved DNA left (log2) [8]: -0.00352; uncleaved DNA left (log2) [9]: -1.75

How did the “uncleaved DNA left (log2)” value [1] turn out when GTCGACC was run?
Its value is 0.116.

And the “uncleaved DNA left (log2)” value [2]?
The value was 0.0936.

What about the “uncleaved DNA left (log2)” value [3] of the same sequence?
The value was 0.245.

And the “uncleaved DNA left (log2)” value [4]?
Its value is 0.701.

And the “uncleaved DNA left (log2)” value [5]?
Its value is 0.0636.

What about the “uncleaved DNA left (log2)” value [6] of the same sequence?
The value was 0.406.

What about the “uncleaved DNA left (log2)” value [7] of the same sequence?
The value was -0.0324.

And the “uncleaved DNA left (log2)” value [8]?
The value was 0.16.

What about the “uncleaved DNA left (log2)” value [9] of the same sequence?
Its value is 0.0544.

Which results are given for TCGCGTT?
uncleaved DNA left (log2) [1]: -0.0422; uncleaved DNA left (log2) [2]: -0.108; uncleaved DNA left (log2) [3]: -0.74; uncleaved DNA left (log2) [4]: -1.22; uncleaved DNA left (log2) [5]: -0.128; uncleaved DNA left (log2) [6]: -1.21; uncleaved DNA left (log2) [7]: -0.515; uncleaved DNA left (log2) [8]: -0.121; uncleaved DNA left (log2) [9]: -0.116

For TCAAGGT, which “uncleaved DNA left (log2)” value [1] is on record?
Its value is 0.0183.

And the “uncleaved DNA left (log2)” value [2]?
The value was -0.0292.

And the “uncleaved DNA left (log2)” value [3]?
The value was 0.355.

What about the “uncleaved DNA left (log2)” value [4] of the same sequence?
Its value is 1.15.

And the “uncleaved DNA left (log2)” value [5]?
The value was -0.122.

What about the “uncleaved DNA left (log2)” value [6] of the same sequence?
Its value is 1.72.

And the “uncleaved DNA left (log2)” value [7]?
Its value is 0.107.

And the “uncleaved DNA left (log2)” value [8]?
Its value is -0.069.

What about the “uncleaved DNA left (log2)” value [9] of the same sequence?
The value was 0.0234.

How did the “uncleaved DNA left (log2)” value [1] turn out when GTCCAAC was run?
Its value is 0.0734.

And the “uncleaved DNA left (log2)” value [2]?
Its value is 0.11.

What about the “uncleaved DNA left (log2)” value [3] of the same sequence?
Its value is 0.293.

And the “uncleaved DNA left (log2)” value [4]?
Its value is 0.768.

And the “uncleaved DNA left (log2)” value [5]?
The value was -0.0907.

What about the “uncleaved DNA left (log2)” value [6] of the same sequence?
Its value is 1.61.

What about the “uncleaved DNA left (log2)” value [7] of the same sequence?
Its value is 0.0563.

What about the “uncleaved DNA left (log2)” value [8] of the same sequence?
The value was 0.137.

What about the “uncleaved DNA left (log2)” value [9] of the same sequence?
The value was 0.0864.

Which results are given for AACGTTC?
uncleaved DNA left (log2) [1]: 0.103; uncleaved DNA left (log2) [2]: 0.139; uncleaved DNA left (log2) [3]: -0.0547; uncleaved DNA left (log2) [4]: -1.93; uncleaved DNA left (log2) [5]: 0.249; uncleaved DNA left (log2) [6]: -0.557; uncleaved DNA left (log2) [7]: 0.14; uncleaved DNA left (log2) [8]: 0.152; uncleaved DNA left (log2) [9]: 0.132

With AGCCCTA as the sequence, how does the “uncleaved DNA left (log2)” value [1] read?
Its value is 0.126.

What about the “uncleaved DNA left (log2)” value [2] of the same sequence?
The value was 0.0569.

What about the “uncleaved DNA left (log2)” value [3] of the same sequence?
The value was 0.723.

And the “uncleaved DNA left (log2)” value [4]?
Its value is 1.19.

What about the “uncleaved DNA left (log2)” value [5] of the same sequence?
Its value is 0.0172.

What about the “uncleaved DNA left (log2)” value [6] of the same sequence?
The value was 1.66.

What about the “uncleaved DNA left (log2)” value [7] of the same sequence?
Its value is 0.0526.

What about the “uncleaved DNA left (log2)” value [8] of the same sequence?
The value was 0.0933.

And the “uncleaved DNA left (log2)” value [9]?
The value was 0.243.

Which “uncleaved DNA left (log2)” value [1] does the source give for ATCCGCG here?
Its value is -0.175.

And the “uncleaved DNA left (log2)” value [2]?
The value was -0.0823.

And the “uncleaved DNA left (log2)” value [3]?
The value was -0.548.

What about the “uncleaved DNA left (log2)” value [4] of the same sequence?
The value was 1.08.

And the “uncleaved DNA left (log2)” value [5]?
The value was -0.0495.

And the “uncleaved DNA left (log2)” value [6]?
Its value is 0.0685.

And the “uncleaved DNA left (log2)” value [7]?
Its value is 0.13.

What about the “uncleaved DNA left (log2)” value [8] of the same sequence?
Its value is -0.093.

And the “uncleaved DNA left (log2)” value [9]?
The value was -0.202.

Which results are given for ATATGTA?
uncleaved DNA left (log2) [1]: -0.316; uncleaved DNA left (log2) [2]: 0.0193; uncleaved DNA left (log2) [3]: -0.222; uncleaved DNA left (log2) [4]: -1.16; uncleaved DNA left (log2) [5]: 0.0592; uncleaved DNA left (log2) [6]: -0.819; uncleaved DNA left (log2) [7]: -0.446; uncleaved DNA left (log2) [8]: 0.0129; uncleaved DNA left (log2) [9]: -0.0478

CGTCGTG was tested. Which “uncleaved DNA left (log2)” value [1] did it give?
The value was 0.0984.

And the “uncleaved DNA left (log2)” value [2]?
Its value is 0.0555.

What about the “uncleaved DNA left (log2)” value [3] of the same sequence?
Its value is -0.361.

And the “uncleaved DNA left (log2)” value [4]?
Its value is -0.271.

What about the “uncleaved DNA left (log2)” value [5] of the same sequence?
Its value is 0.0792.

What about the “uncleaved DNA left (log2)” value [6] of the same sequence?
Its value is -0.36.

And the “uncleaved DNA left (log2)” value [7]?
The value was 0.202.

And the “uncleaved DNA left (log2)” value [8]?
Its value is 0.0195.

And the “uncleaved DNA left (log2)” value [9]?
The value was 0.0691.

Which “uncleaved DNA left (log2)” value [1] does the source give for GTCCTAC here?
The value was -0.0989.

And the “uncleaved DNA left (log2)” value [2]?
The value was -0.102.

What about the “uncleaved DNA left (log2)” value [3] of the same sequence?
The value was 0.165.

And the “uncleaved DNA left (log2)” value [4]?
The value was 0.388.

What about the “uncleaved DNA left (log2)” value [5] of the same sequence?
Its value is -0.235.

And the “uncleaved DNA left (log2)” value [6]?
Its value is 1.48.

What about the “uncleaved DNA left (log2)” value [7] of the same sequence?
Its value is -0.289.

What about the “uncleaved DNA left (log2)” value [8] of the same sequence?
The value was -0.156.

What about the “uncleaved DNA left (log2)” value [9] of the same sequence?
The value was -0.0956.

Which “uncleaved DNA left (log2)” value [1] does the source give for CTTTACG here?
Its value is 0.0699.

What about the “uncleaved DNA left (log2)” value [2] of the same sequence?
Its value is -0.0639.

What about the “uncleaved DNA left (log2)” value [3] of the same sequence?
The value was -0.914.

And the “uncleaved DNA left (log2)” value [4]?
The value was -0.468.

And the “uncleaved DNA left (log2)” value [5]?
Its value is -0.0337.

What about the “uncleaved DNA left (log2)” value [6] of the same sequence?
The value was -1.04.

What about the “uncleaved DNA left (log2)” value [7] of the same sequence?
The value was 0.135.

What about the “uncleaved DNA left (log2)” value [8] of the same sequence?
Its value is -0.01.

And the “uncleaved DNA left (log2)” value [9]?
The value was -0.0695.
